Experimental data from the supplement of paper PMC3334620.
In all, about 33,000 sequences were measured (“E-score (-0.5 to 0.5)”: median about -0.012, highest 2% from about 0.29 on). This is one part of the list.

These sequences were tested against T1, Ybr033w (UniProt P38073) (assay: PBM E-score (8-mer binding enrichment) (E-score (-0.5 to 0.5)); higher = stronger / more preferred TF binding; most listed sequences are background and not binding sites). Conditions: protein concentration: 200 nM; construct: GST-full length.
T1 sequence: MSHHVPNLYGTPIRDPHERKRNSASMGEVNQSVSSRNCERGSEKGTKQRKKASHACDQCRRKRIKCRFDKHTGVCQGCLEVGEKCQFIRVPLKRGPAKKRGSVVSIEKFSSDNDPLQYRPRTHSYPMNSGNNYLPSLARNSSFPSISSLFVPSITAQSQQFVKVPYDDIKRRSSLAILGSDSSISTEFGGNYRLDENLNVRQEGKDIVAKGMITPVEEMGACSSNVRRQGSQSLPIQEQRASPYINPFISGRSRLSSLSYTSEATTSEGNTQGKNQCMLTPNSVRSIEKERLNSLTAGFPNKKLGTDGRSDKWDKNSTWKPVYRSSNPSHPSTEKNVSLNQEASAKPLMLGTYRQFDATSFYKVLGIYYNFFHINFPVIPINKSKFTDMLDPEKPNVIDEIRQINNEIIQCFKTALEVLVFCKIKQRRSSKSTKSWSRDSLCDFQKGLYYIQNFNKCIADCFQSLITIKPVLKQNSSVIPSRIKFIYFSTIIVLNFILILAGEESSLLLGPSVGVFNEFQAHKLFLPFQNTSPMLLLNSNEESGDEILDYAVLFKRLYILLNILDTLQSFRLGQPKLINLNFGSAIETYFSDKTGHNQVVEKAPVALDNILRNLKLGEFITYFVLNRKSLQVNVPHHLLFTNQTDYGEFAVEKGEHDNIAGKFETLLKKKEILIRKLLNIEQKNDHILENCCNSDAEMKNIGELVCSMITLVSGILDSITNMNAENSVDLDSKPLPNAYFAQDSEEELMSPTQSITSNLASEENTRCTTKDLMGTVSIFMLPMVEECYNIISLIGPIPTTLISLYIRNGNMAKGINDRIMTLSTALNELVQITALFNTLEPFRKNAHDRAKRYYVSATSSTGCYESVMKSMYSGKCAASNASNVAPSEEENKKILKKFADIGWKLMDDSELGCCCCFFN
In short: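 E-scores (a modified Wilcoxon-Mann-Whitney statistic) were assigned by the Universal PBM Analysis Suite to every ungapped eight-base word pooled with its reverse complement. The input came from universal all-10-mer Agilent arrays made double-stranded by primer extension and probed with GST-tagged yeast transcription factors at about 100-200 nM. Fluorescent anti-GST detected bound protein, and masliner normalised the scans.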

Sequence	PBM E-score
AGATTATC	0.301
ATCGGTGA	0.0274
AGTCCACG	-0.159
ATTACCGA	0.0859
CACATTCG	0.105
CTCCCTAA	-0.0573
AGCGAAGG	-0.154
CCGTTATC	0.0243
AATGCTCA	0.188
CGCGAACA	0.0214
CTTTCCGA	0.0129
ATGACCGC	-0.254
ACTGATCA	0.111
AATTGCTC	0.0628
ATAGATTA	0.329
GCCCGAAA	0.0856
CCGCTTTA	0.0166
GGGTGTTA	-0.071
AGACGCTG	-0.211
GCCGTCCA	-0.00942
CATCGCAG	-0.178
GGCTTCCA	-0.241
ATGATAAC	0.156
AGGTATGA	0.0821
ATGCAACG	-0.129

Sequence	PBM E-score
ACAACGTC	-0.0691
CAGATCTA	-0.039
CACCATGA	-0.0244
ATCACATA	0.215
GACGGTAC	0.143
GGATTCCA	0.0882
CACGGGTC	-0.288
CGCCCCTC	-0.382
GATGAGCC	-0.124
CCGTGTAG	-0.118
GCGTAAGC	-0.18
CAGCTATA	-0.0519
CGCTAAGA	-0.0745
ATGCATAG	0.082
CTCAGTCC	-0.0963
CAACCATA	0.196
CGAATCAA	0.19
CGCGTGCA	-0.171
ACTAGCAG	0.0656
CTGTAGTC	-0.0937
AGCTCTAC	-0.131
GAATTCCC	-0.223
ATACTAAG	0.101
CCTTGCCA	-0.0197
ATGCTGCC	-0.107

Sequence	PBM E-score
CCGAGAAA	0.179
GAAGCGCA	-0.118
GCCTCTAC	-0.179
ATAAGTTA	0.213
GGTAATAC	0.137
CCAGCAGC	-0.212
AGGGTCAA	-0.0277
ACCGATAA	0.189
GTCGTAAC	0.0613
AGCCCTTA	-0.0287
GACGTATA	-0.0124
ACGTCAGT	-0.153
CACGCCAA	-0.00942
ATAAAAGC	0.226
GATGAGGC	-0.397
TTACCAAA	0.235
AGTGGTTC	0.00899
CCTGTACG	-0.0856
AGTGTCGG	0.0114
CACGTCGG	-0.194
CAATCGGA	0.0902
ATAAACGG	0.245
TACATACA	0.245
GATGATAC	0.0761
AGAAAAGG	-0.0204

Sequence	PBM E-score
GCTAATAA	0.0756
CACCCCTG	-0.268
ACCGTAGG	-0.348
CAGGCAGG	-0.183
AATCGTCA	-0.0213
GCCCGCGC	-0.0448
CGCGTTAA	-0.0483
CGGCGACG	-0.135
CCTATCCG	-0.163
AATCGTGA	0.0113
GGGAGATA	-0.0454
AGTATGAT	0.168
TCATCGAA	0.109
CGAACACA	0.0166
AGAGAATC	0.0652
CCGATCGC	-0.129
GTCTAAAA	-0.0699
CCGGTGAG	-0.229
GGCGAGCA	-0.0236
CGCGGTTA	-0.0575
ACGTTTTG	-0.019
AAAGGTGA	0.0608
GGATTGCA	0.0644
CGGAAGTA	0.14
GATAATAA	0.194

Sequence	PBM E-score
CGGGCATC	-0.173
GATATTGC	0.101
CCCCACCG	-0.222
AGGTGCCG	-0.118
GCCGAAGC	-0.183
ATGCCCAG	-0.131
CAGTAAGC	0.029
CGCTAAAC	-0.083
CCGTAGAG	-0.206
GTTCACCA	-0.0286
AATTCATC	0.145
AATGAGCA	0.0856
AGCCCCAG	-0.128
GAAAACCC	-0.0428
CGTTCTTC	0.0897
GCGAAGAC	-0.205
ATGTCCAA	0.0809
TATGCTCA	0.171
TGCGTAAA	0.166
GCTGTGAA	-0.0256
CCTTGCAA	-0.188
ACAGGTTA	0.0107
CCCAACCA	-0.00754
ACGGGAGA	-0.112
ATTCAAAC	0.167

Sequence	PBM E-score
AGTAGTCG	-0.0439
AGGAGTAC	-0.2
CACCATTC	-0.0034
ACCAATGA	-0.0131
AATTTTAT	0.331
ATAGTTGG	-0.00301
AGTCCGAA	0.0126
AATAAGAG	0.171
ACCGGGAC	-0.128
GTGACGAA	0.0494
CCCAAGGG	-0.29
GGCTGCTA	-0.0804
CCGCCCTC	-0.172
GCACTAGC	-0.2
GACCAATA	0.0671
AGTGCCAT	-0.083
CCGTCGGA	-0.201
ACCATGCT	-0.0803
CAAGTTTC	0.166
CTAGCTGC	-0.336
GACTGACC	-0.205
ACCCACAA	0.0993
AGAGCAGC	-0.271
CAACTCGG	-0.105
TCCATTCA	0.0959

Sequence	PBM E-score
ATACGTCA	0.113
AGCGGTCG	-0.243
ACCTCCCA	-0.283
AAACTTGC	0.185
ATGTTCTA	-0.00747
AAGGCATT	-0.0474
CCTTATTA	0.135
AATTGACT	0.139
ACCCACTC	-0.0665
CCCCAGAG	-0.317
CAGGACTC	-0.176
AAAGGTGT	-0.187
CACGTACC	-0.157
ACCAGCCA	-0.00569
ATCGGCCA	-0.218
CGTGTCAC	0.0273
GACGACGC	-0.307
CGGGTGTA	-0.0764
TACAGCGA	-0.0975
CTTGTACC	-0.136
GCTTTCCC	-0.253
AAGGTTAC	0.0636
